# Test results published in publication PMC4336329 (PLoS ONE, 2015).
# Hit rate of the full screen: of about 310,000 compounds, about 14,000 (4.5%) showed an effect of 50% or more. The effect is printed as a negative number. Some of the results follow.
# Target: human ether-à-go-go-related gene (hERG) potassium channel (human, UniProt Q12809)
# Experiment: primary screen, population patch clamp on CHO cells stably expressing hERG
# 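Note: peak tail current of the secondary pulse compared with the same well before compound.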
# human ether-à-go-go-related gene (hERG) potassium channel, sequence (Q12809 whole entry, looked up): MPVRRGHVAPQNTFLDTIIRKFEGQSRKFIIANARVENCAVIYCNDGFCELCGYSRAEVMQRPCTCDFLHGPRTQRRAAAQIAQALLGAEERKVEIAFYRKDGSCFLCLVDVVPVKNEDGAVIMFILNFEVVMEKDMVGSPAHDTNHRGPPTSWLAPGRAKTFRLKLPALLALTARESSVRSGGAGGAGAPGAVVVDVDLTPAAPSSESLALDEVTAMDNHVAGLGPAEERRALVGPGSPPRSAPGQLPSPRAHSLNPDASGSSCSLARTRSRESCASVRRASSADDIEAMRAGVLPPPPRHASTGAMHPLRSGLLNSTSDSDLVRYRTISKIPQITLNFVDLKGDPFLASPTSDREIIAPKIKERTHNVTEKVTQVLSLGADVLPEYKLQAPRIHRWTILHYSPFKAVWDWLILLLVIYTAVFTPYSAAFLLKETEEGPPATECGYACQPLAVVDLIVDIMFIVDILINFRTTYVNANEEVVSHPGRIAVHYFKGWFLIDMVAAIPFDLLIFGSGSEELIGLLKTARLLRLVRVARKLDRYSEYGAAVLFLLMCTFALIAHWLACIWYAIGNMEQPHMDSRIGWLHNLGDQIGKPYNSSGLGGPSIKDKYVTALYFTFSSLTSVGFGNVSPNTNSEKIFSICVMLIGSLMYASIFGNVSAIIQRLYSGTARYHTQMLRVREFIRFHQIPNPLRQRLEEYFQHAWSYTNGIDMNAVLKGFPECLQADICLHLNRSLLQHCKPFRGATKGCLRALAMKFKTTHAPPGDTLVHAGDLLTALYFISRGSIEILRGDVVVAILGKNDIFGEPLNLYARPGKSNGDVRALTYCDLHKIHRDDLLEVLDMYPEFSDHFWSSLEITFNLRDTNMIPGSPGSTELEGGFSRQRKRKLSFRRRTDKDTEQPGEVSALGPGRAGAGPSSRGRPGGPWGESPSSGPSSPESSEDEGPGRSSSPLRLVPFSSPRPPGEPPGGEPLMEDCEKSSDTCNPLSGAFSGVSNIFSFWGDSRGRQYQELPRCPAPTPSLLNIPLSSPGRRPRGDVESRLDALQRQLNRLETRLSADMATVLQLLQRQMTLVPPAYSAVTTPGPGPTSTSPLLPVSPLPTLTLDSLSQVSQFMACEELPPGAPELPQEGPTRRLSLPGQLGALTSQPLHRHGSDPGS
row,Structure (SMILES),"hERG current change (%, negative = inhibition) at 10uM"
1,Cc1ccc2[nH]c(C)c(CCNC(=O)c3cc4cc([N+](=O)[O-])ccc4oc3=O)c2c1,-2.16%
2,Clc1cccc(OCCCCCN2CCOCC2)c1,-22.6%
3,Cc1nc2ccc(NC(=O)c3ccc(=O)[nH]c3)cc2s1,11.2%
4,Cc1nnc(SCC(=O)NCC2CCCO2)n1-c1ccccc1 (centres unmarked),-4.28%
5,O/N=C\c1cccn1-c1nccs1,-16.5%
6,NS(=O)(=O)c1ccc(NC(=O)CSc2ncnc3ccccc23)cc1,12.6%
7,CNC(=S)N1CCN(c2ccccc2OC)CC1,7.94%
8,O=C(COc1ccccc1Cl)Nc1ccc2c(c1)OCCO2,4.85%
9,COc1ccc(C(=O)NCC(c2cccs2)N2CCc3ccccc32)c(OC)c1 (centres unmarked),8.79%
10,Cc1ccccc1C(=O)N1CCC(C(=O)Nc2cc(C(F)(F)F)ccc2N2CCCC2)CC1,-10.6%
11,O=C(OCC(=O)N1CCN(C(=O)c2ccco2)CC1)c1cc(S(=O)(=O)Nc2ccc(Cl)cc2)ccc1O,-64.6%
12,Cc1cc(NC(=O)CCNS(=O)(=O)c2cc(Br)cnc2N)ccc1Br,-8.16%
13,Cc1ccc(-c2nc(N)c3c(-c4ccc(C)cc4)nn(C(C)(C)C)c3n2)cc1,-1.71%
14,CCN(C(=O)COC(=O)c1sccc1C)c1c(N)n(Cc2ccccc2)c(=O)[nH]c1=O,-1.45%
15,Cc1nn(-c2ccccc2)c(Cl)c1/C=N/Nc1ccc(Cl)c(C(=O)O)c1,21.3%
16,C=CCOc1ccc(Cl)cc1CNC1CCCC1.Cl,-21.9%
17,Cc1ccc(C)c(S(=O)(=O)NCc2ccc(C(=O)N3CCCCCC3)cc2)c1,12.3%
18,CCN(CC)C(=O)COc1ccc(C=O)cc1OC,-3.23%
19,CCOc1ccccc1-c1nnc(SCC(=O)NC2CC3CCC2C3)n1CC (centres unmarked),-3.89%
20,O=c1oc2cc(OCc3c(F)c(F)c(F)c(F)c3F)ccc2cc1-c1ccccn1,14%
21,COc1ccc(S(=O)(=O)N2CCCC(C(=O)O)C2)cc1Cl (centres unmarked),6.43%
22,Cc1cc[n+](CC(=O)Nc2nc3ccccc3s2)cc1.[Cl-],10.5%
23,Cc1ccc(CNC(=O)c2ccc(Cl)cc2[N+](=O)[O-])cc1,9.22%

row,Structure (SMILES),"hERG current change (%, negative = inhibition) at 10uM"
1,O=C(NNc1cc(N2CCOCC2)nc(N2CCOCC2)n1)c1ccc(Cl)c(Cl)c1,-36.5%
2,COc1ccc2c(c1OC)C(=O)N1c3ccccc3C(=O)N(c3ccc(F)cc3)C21 (centres unmarked),2.75%
3,COc1cccc(OC)c1C(=O)Nc1c(C(=O)N2CCN(C)CC2)oc2ccccc12,-29.1%
4,O=C(CN1CCN(Cc2ccc3c(c2)OCO3)CC1)NCC(F)(F)F,5.34%
5,CCNC(=O)C1CCCN(c2nc(C)cc(C)n2)C1 (centres unmarked),16.9%
6,Cc1ccc(S(=O)(=O)NCc2ccccn2)c(C)c1C,-4.89%
7,CCOc1ccc(S(=O)(=O)N2CC(=O)Nc3ccccc32)cc1,22.1%
8,O=C(O)c1cccc(Nc2ccnc(Nc3cccc(C(=O)O)c3)n2)c1,15.6%
9,CCCn1cnnc1CNC(=O)C1CCC(=O)N(CCCc2ccccc2)C1 (centres unmarked),6.8%
10,O=C(O)c1ccccc1C(=O)N1CCN(c2ncccn2)CC1,18.6%
11,O=C1C=C(c2ccc(OC(F)(F)F)cc2)C[C@@H](c2ccc(Cl)cc2)C1,13.2%
12,Cc1cccc(NC(=O)c2cnc3sccn3c2=O)n1,6.27%
13,CC(c1cccnc1)N(CCN(C)C)C(=O)Nc1ccc(Cl)c(Cl)c1 (centres unmarked),-48.2%
14,COc1ccc(CCC(=O)NCCS(=O)(=O)N2CCN(c3ccccc3F)CC2)cc1,-63.2%
15,CC1CC(C)CN(C(=O)Cn2c(=O)n(CCCCC(=O)NC3CCCC3)c(=O)c3ccccc32)C1 (centres unmarked),-2.79%
16,CCOC(=O)c1c(C)oc2cc(Br)c(OC(=O)N3CCOCC3)cc12,-21.5%
17,COCc1ccc(C(=O)N2CCc3c([nH]c4ccccc34)C2c2ccccn2)s1 (centres unmarked),-17.8%
18,Cc1cc(=O)oc2cc(OC(C)C(=O)O)c(Cl)cc12 (centres unmarked),-9.5%
19,Cc1ccc(Cn2c(SCC(N)=O)nc3c2c(=O)n(C)c(=O)n3C)cc1,1.27%
20,O=C(NCCC1=CCCCC1)c1ccc(Br)o1,-4.78%
21,COC(=O)CCSCC(=O)Nc1ccc(C)c(S(=O)(=O)N2CCCCC2)c1,3.27%
22,N#Cc1ccccc1OCCOCCNC1CCCC1,-9.05%
23,CCc1c(C)sc(NC(=O)c2cc(-c3ccc(O)cc3)on2)c1C#N,11.2%

row,Structure (SMILES),"hERG current change (%, negative = inhibition) at 10uM"
1,Cl.NC(Cc1ccccc1)c1nc2ccccc2[nH]1 (centres unmarked),24%
2,O=C(Nc1ccc(NC(=O)c2cccs2)c(Cl)c1)c1cccs1,25.5%
3,COc1ccc(-n2nc3cc(N)c(Br)cc3n2)cc1,16.7%
4,CCc1c(C)sc(NC(NC(C)=O)(C(=O)OC)C(F)(F)F)c1C#N (centres unmarked),1.74%
5,COc1cccc(C(C(=O)NC2CCCC2)N(C(=O)c2ccco2)c2ccc(-n3cnnn3)c(C)c2)c1OC (centres unmarked),8.33%
6,Cc1ccc(O)c(C(CC(=O)NC(C)C)c2ccccc2)c1 (centres unmarked),6.85%
7,COC(=O)c1ccc(C2NCCc3cc(OC)c(OC)cc32)cc1 (centres unmarked),5%
8,CC(C)Cc1cc(C(=O)NCCN2CCOCC2)no1,7.92%
9,O=C(NC12CC3CC(CC(C3)C1)C2)c1ccc(-c2ccc(Br)cc2)o1,8.55%
10,CCn1c(C)c(P(c2ccccc2)c2ccccc2)[n+]2ccccc12.F[B-](F)(F)F,-11.6%
11,O=C(COc1ccc(Br)cc1Br)NC(=O)NC1CCCC1,22.3%
12,Cc1cc(=O)[nH]c(SCCc2ccccc2)n1,0.0472%
13,Cc1ccccc1OCC(=O)N1CCC2(CC1)CC(=O)c1ccccc1O2,-57.5%
14,Cc1ccc(CNC(=O)N2CCN(S(=O)(=O)c3ccccc3)CC2)cc1,9.31%
15,COc1ccc(-c2c(C#Cc3ccsc3)c3cc(-c4ccc(OC)nc4)ccc3n2C)cc1,18.9%
16,CCN(CC)CCN(C(=O)CCS(=O)(=O)c1ccccc1)c1nc2cc3c(cc2s1)OCO3.Cl,-20.6%
17,CCOc1ccc(/C=N/NC(=O)Cc2csc(Nc3cccc(C(F)(F)F)c3)n2)cc1,-3.29%
18,O=C(C/C=N\O)Nc1ccc(Oc2ccccc2)cc1,0.575%
19,CC(NC(=O)CN1C(=O)NC2(CCCCC2C)C1=O)c1ccccc1 (centres unmarked),-1.57%
20,COc1ccc(CN2C(=O)CC(Cc3ccc(C)cc3)C2=O)cc1OC (centres unmarked),-4.33%
21,O=C(CN1C(=O)CSCC1=O)NCc1ccc(F)cc1,11.2%
22,CCNC(=S)NNC(=O)c1cc(-c2cccnc2)nc2ccccc12,12.9%
23,O=C(c1ccc(CNc2c(N3CCCC3)c(=O)c2=O)cc1)N1CC=C(c2ccccc2)CC1,-34.3%

row,Structure (SMILES),"hERG current change (%, negative = inhibition) at 10uM"
1,Cc1ccc(Cn2c(SCCN3CCCCC3)nc3c2c(=O)n(C)c(=O)n3C)cc1,-75.4%
2,Nc1nnc(SCCOc2ccc(Br)cc2)s1,5.07%
3,O=C(Nc1ccccc1)Nc1ccc(Oc2ncnc3cc(Cl)ccc23)nc1,7.06%
4,O=C(CN1C(=O)CCC1=O)Nc1nc(-c2nc3ccccc3s2)cs1,-46%
5,Nn1cc(-c2ccccc2)nc1SCC(=O)NCCN1C(=O)CSC1=O,12.9%
6,O=C(CCCn1cnc([N+](=O)[O-])n1)Nc1cc(Cl)ccc1O,7.02%
7,Cc1ccc(S(=O)(=O)NC(C)C(=O)Nc2ccc(C(N)=O)cc2)cc1 (centres unmarked),20.9%
8,CCCCSc1nnc(-c2ccc(C)cc2)c2ccccc12,3.91%
9,Cc1cccc(C)c1OCC(O)CN(Cc1ccccc1O)C1CCCCC1 (centres unmarked),-4.28%
10,N#Cc1cc(C(=O)c2ccccc2OCC(=O)Nc2ccccc2)cn(C2CCCCC2)c1=O,18.7%
11,CC1CCC(NC(=O)C2CCC(CNc3c(N4CCCCC4)c(=O)c3=O)CC2)CC1 (centres unmarked),3.05%
12,CCCOc1ccc(OCC(=O)c2[nH]c(C)c(C(C)=O)c2C)cc1,5.2%
13,CCC(=O)c1ccccc1OCCSc1nc(C)cc(=O)[nH]1,-11.9%
14,Cc1nnc(SCc2cc(=O)[nH]c(/N=C(\N)Nc3ccccc3Sc3ccccc3)n2)s1,-11.1%
15,c1ccc2nc(-c3ccc(N4CCOCC4)cc3)ccc2c1,4.34%
16,Cc1ccn2c(C(=O)CSc3ccc(Cl)cc3)c(C)nc2c1,7.28%
17,Cc1ccc(COn2nnc3ccc(S(=O)(=O)N4CCOCC4)cc32)cc1,-27.2%
18,Cc1c(CCC(=O)O)c(=O)oc2cc(OCc3cccc(F)c3)ccc12,32.1%
19,CN1C(C(=O)Nc2ccccn2)=C(O)c2sccc2S1(=O)=O,9.38%
20,CC(=O)Nc1ccc(N2CCCCC2)c(C(=O)Nc2cccc(C)c2)c1,-18.1%
